Residue numbers refer to the chain shown, from its start. The list shows a part of the results.
T1: RBFOX1 RRM RbFoxmut (Fox-RRM*) (Homo sapiens, UniProt Q9NWB1 109-208, R118D;E147R;N151S;E152T)
T1 sequence: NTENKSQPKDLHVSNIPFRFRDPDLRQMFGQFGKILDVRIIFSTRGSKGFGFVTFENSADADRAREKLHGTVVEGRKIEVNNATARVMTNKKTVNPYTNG

B1: UCUCUGA (DNA:RNA)
RNA: GGGAGACCGGAAUUCAGAUUGUCCUCUCUGAUUAAAUCCCGUCGUAGCCACCA
DNA 1: CAATCTGAATTCCGGTCTCCC
DNA 2: TGGTGGCTACGACGGGATT
B2: UCAGGUG (DNA:RNA)
RNA: B1 RNA with U27A, C28G, U29G, G30U, A31G
DNA 1: CAATCTGAATTCCGGTCTCCC
DNA 2: TGGTGGCTACGACGGGATT
B3: ACAGAGU (DNA:RNA)
RNA: B1 RNA with U25A, U27A, C28G, U29A, A31U
DNA 1: CAATCTGAATTCCGGTCTCCC
DNA 2: TGGTGGCTACGACGGGATT
B4: AUGAAGA (DNA:RNA)
RNA: B1 RNA with U25A, C26U, U27G, C28A, U29A
DNA 1: CAATCTGAATTCCGGTCTCCC
DNA 2: TGGTGGCTACGACGGGATT
B5: CGCCCAA (DNA:RNA)
RNA: B1 RNA with U25C, C26G, U27C, U29C, G30A
DNA 1: CAATCTGAATTCCGGTCTCCC
DNA 2: TGGTGGCTACGACGGGATT
B6: CAUGAGG (DNA:RNA)
RNA: B1 RNA with U25C, C26A, C28G, U29A, A31G
DNA 1: CAATCTGAATTCCGGTCTCCC
DNA 2: TGGTGGCTACGACGGGATT
B7: CAGACUC (DNA:RNA)
RNA: GGGAGACCGGAAUUCAGAUUGUCCCAGACUCUUAAAUCCCGUCGUAGCCACCA
DNA 1: CAATCTGAATTCCGGTCTCCC
DNA 2: TGGTGGCTACGACGGGATT
B8: ACCCCCG (DNA:RNA)
RNA: B1 RNA with U25A, U27C, U29C, G30C, A31G
DNA 1: CAATCTGAATTCCGGTCTCCC
DNA 2: TGGTGGCTACGACGGGATT
B9: GGCCCUA (DNA:RNA)
RNA: B7 RNA with C25G, A26G, G27C, A28C, C31A
DNA 1: CAATCTGAATTCCGGTCTCCC
DNA 2: TGGTGGCTACGACGGGATT
B10: GCAGAGA (DNA:RNA)
RNA: B1 RNA with U25G, U27A, C28G, U29A
DNA 1: CAATCTGAATTCCGGTCTCCC
DNA 2: TGGTGGCTACGACGGGATT
B11: CCGCGAU (DNA:RNA)
RNA: B7 RNA with A26C, A28C, C29G, U30A, C31U
DNA 1: CAATCTGAATTCCGGTCTCCC
DNA 2: TGGTGGCTACGACGGGATT
B12: UAGAGGU (DNA:RNA)
RNA: B7 RNA with C25U, C29G, U30G, C31U
DNA 1: CAATCTGAATTCCGGTCTCCC
DNA 2: TGGTGGCTACGACGGGATT
B13: GGUGCUG (DNA:RNA)
RNA: B7 RNA with C25G, A26G, G27U, A28G, C31G
DNA 1: CAATCTGAATTCCGGTCTCCC
DNA 2: TGGTGGCTACGACGGGATT
B14: GUCCUGU (DNA:RNA)
RNA: B1 RNA with U25G, C26U, U27C, A31U
DNA 1: CAATCTGAATTCCGGTCTCCC
DNA 2: TGGTGGCTACGACGGGATT
B15: CUGGACG (DNA:RNA)
RNA: B7 RNA with A26U, A28G, C29A, U30C, C31G
DNA 1: CAATCTGAATTCCGGTCTCCC
DNA 2: TGGTGGCTACGACGGGATT
B16: GUGCAAA (DNA:RNA)
RNA: B1 RNA with U25G, C26U, U27G, U29A, G30A
DNA 1: CAATCTGAATTCCGGTCTCCC
DNA 2: TGGTGGCTACGACGGGATT
B17: CUGUUAU (DNA:RNA)
RNA: B7 RNA with A26U, A28U, C29U, U30A, C31U
DNA 1: CAATCTGAATTCCGGTCTCCC
DNA 2: TGGTGGCTACGACGGGATT
B18: GAACCGA (DNA:RNA)
RNA: B1 RNA with U25G, C26A, U27A, U29C
DNA 1: CAATCTGAATTCCGGTCTCCC
DNA 2: TGGTGGCTACGACGGGATT
B19: GGUAUGG (DNA:RNA)
RNA: B1 RNA with U25G, C26G, C28A, A31G
DNA 1: CAATCTGAATTCCGGTCTCCC
DNA 2: TGGTGGCTACGACGGGATT
B20: GGUGUCG (DNA:RNA)
RNA: B1 RNA with U25G, C26G, C28G, G30C, A31G
DNA 1: CAATCTGAATTCCGGTCTCCC
DNA 2: TGGTGGCTACGACGGGATT
B21: UUUUCUA (DNA:RNA)
RNA: B1 RNA with C26U, C28U, U29C, G30U
DNA 1: CAATCTGAATTCCGGTCTCCC
DNA 2: TGGTGGCTACGACGGGATT
B22: AUGAAUC (DNA:RNA)
RNA: B7 RNA with C25A, A26U, C29A
DNA 1: CAATCTGAATTCCGGTCTCCC
DNA 2: TGGTGGCTACGACGGGATT
B23: CAACUCU (DNA:RNA)
RNA: B7 RNA with G27A, A28C, C29U, U30C, C31U
DNA 1: CAATCTGAATTCCGGTCTCCC
DNA 2: TGGTGGCTACGACGGGATT
B24: CGUAGCA (DNA:RNA)
RNA: B7 RNA with A26G, G27U, C29G, U30C, C31A
DNA 1: CAATCTGAATTCCGGTCTCCC
DNA 2: TGGTGGCTACGACGGGATT
B25: AGUGGGC (DNA:RNA)
RNA: B1 RNA with U25A, C26G, C28G, U29G, A31C
DNA 1: CAATCTGAATTCCGGTCTCCC
DNA 2: TGGTGGCTACGACGGGATT
B26: UUGCUAA (DNA:RNA)
RNA: B1 RNA with C26U, U27G, G30A
DNA 1: CAATCTGAATTCCGGTCTCCC
DNA 2: TGGTGGCTACGACGGGATT
B27: UGGAUAA (DNA:RNA)
RNA: B1 RNA with C26G, U27G, C28A, G30A
DNA 1: CAATCTGAATTCCGGTCTCCC
DNA 2: TGGTGGCTACGACGGGATT
B28: AUGGAGU (DNA:RNA)
RNA: B7 RNA with C25A, A26U, A28G, C29A, U30G, C31U
DNA 1: CAATCTGAATTCCGGTCTCCC
DNA 2: TGGTGGCTACGACGGGATT
B29: UAUCAUC (DNA:RNA)
RNA: B7 RNA with C25U, G27U, A28C, C29A
DNA 1: CAATCTGAATTCCGGTCTCCC
DNA 2: TGGTGGCTACGACGGGATT
B30: GAGUAUG (DNA:RNA)
RNA: B7 RNA with C25G, A28U, C29A, C31G
DNA 1: CAATCTGAATTCCGGTCTCCC
DNA 2: TGGTGGCTACGACGGGATT
B31: UUAUGGC (DNA:RNA)
RNA: B1 RNA with C26U, U27A, C28U, U29G, A31C
DNA 1: CAATCTGAATTCCGGTCTCCC
DNA 2: TGGTGGCTACGACGGGATT

molecular target: T1, RBFOX1 RRM RbFoxmut (Fox-RRM*); experiment: EMSA; HiTS-Eq, 1 nM pool, 10 min; buffer printed only for the single-RNA assays: 10 mM Tris pH 7.5, 150 mM NaCl, 3.4 mM EDTA, 0.001% NP-40, 30 C; conditions: tags: His6 N-terminal (pET28a); label: 5' 32P
Procedure, shortened: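 Purified RbFox RRM, wild type or mutant, was incubated for 10 min in 50 µL with 1 nM of a 5′-radiolabelled RNA pool carrying 7 randomized nucleotides, whose flanks were annealed to DNA oligonucleotides, over a series of increasing protein concentrations. Unbound RNA was resolved on 8% native PAGE, cut out, reverse-transcribed, barcoded by PCR and sequenced on an Illumina HiSeq 2500. Relative association constants were derived from changes in read counts for each RNA species versus the control reaction and normalised to the cognate motif.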

| Binder | binding signal |
| --- | --- |
| B1 | 0.074 KA relative to UGCAUGU |
| B2 | 0.122 KA relative to UGCAUGU |
| B3 | 0.134 KA relative to UGCAUGU |
| B4 | 0.122 KA relative to UGCAUGU |
| B5 | 0.0759 KA relative to UGCAUGU |
| B6 | 0.0773 KA relative to UGCAUGU |
| B7 | 0.0667 KA relative to UGCAUGU |
| B8 | 0.0612 KA relative to UGCAUGU |
| B9 | 0.0849 KA relative to UGCAUGU |
| B10 | 0.0792 KA relative to UGCAUGU |
| B11 | 0.0678 KA relative to UGCAUGU |
| B12 | 0.14 KA relative to UGCAUGU |
| B13 | 0.163 KA relative to UGCAUGU |
| B14 | 0.135 KA relative to UGCAUGU |
| B15 | 0.0945 KA relative to UGCAUGU |
| B16 | 0.0857 KA relative to UGCAUGU |

| Binder | binding signal |
| --- | --- |
| B17 | 0.123 KA relative to UGCAUGU |
| B18 | 0.118 KA relative to UGCAUGU |
| B19 | 0.419 KA relative to UGCAUGU |
| B20 | 0.214 KA relative to UGCAUGU |
| B21 | 0.109 KA relative to UGCAUGU |
| B22 | 0.334 KA relative to UGCAUGU |
| B23 | 0.0674 KA relative to UGCAUGU |
| B24 | 0.161 KA relative to UGCAUGU |
| B25 | 0.0896 KA relative to UGCAUGU |
| B26 | 0.105 KA relative to UGCAUGU |
| B27 | 0.103 KA relative to UGCAUGU |
| B28 | 0.177 KA relative to UGCAUGU |
| B29 | 0.0709 KA relative to UGCAUGU |
| B30 | 0.795 KA relative to UGCAUGU |
| B31 | 0.1 KA relative to UGCAUGU |

Source: publication PMC9911399, “Two distinct binding modes provide the RNA-binding protein RbFox with extraordinary sequence specificity”
